# From PubChem BioAssay AID602293 (National Center for Advancing Translational Sciences (NCATS), 2012)
# Out of some 1,300 compounds screened, about 30 (2%) were called active. Another 10% or so got no clear call; they are omitted. Calls follow the shape of the dose curve; as a rule, active = well fitted inhibition curve with a large enough effect; inconclusive = small, poorly fitted or top-dose-only effect; inactive = flat fitted curve, though single readings scatter. This is one part of the list.
# Assay: qHTS for antagonists of the Thyroid Stimulation Hormone Receptor: Hit Validation in HTRF Activity in a Luteinizing Hormone Receptor Cell Line
# Conditions: LHR-expressing cell line, cAMP HTRF, antagonist mode; series mostly up to 58 µM; activity change, negative = inhibition: at the top concentration
# Outline: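 Counter-screen on LH receptor–transfected HEK 293 cells: 30 min compound exposure at room temperature in medium containing 100 uM RO 20-1724 phosphodiesterase inhibitor. Cellular cAMP read by competitive HTRF after lysis with d2-cAMP and anti-cAMP antibody (330 nm excitation; 615/660 nm emission).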
# % is scaled to controls: 0 for no effect and ±100 for the full control effect.
row,Structure (SMILES),"activity change, negative = inhibition"
1,CCN(C(=O)CSc1nnc(-c2ccccc2)o1)c1c(N)n(Cc2ccccc2)c(=O)[nH]c1=O,inactive: -0.973%
2,O=C(Nc1nnc(S(=O)(=O)N2CCCC2)s1)c1ccccc1F,inactive: 0.295%
3,CCN(Cc1ccccc1)c1ccc(/C=C(\C#N)c2ccccn2)cc1,inactive: -6.87%
4,CS(=O)c1ccc(-n2c(=O)n(Cc3ccccc3)c(=O)c3[nH]cnc32)cc1 (stereo unspecified),inactive: 0.809%
5,CN1C(=O)/C(=C/c2ccc(OCc3ccccc3F)cc2)NC1=S,inactive: 0.405%
6,CC(C)(CNC(=O)C1c2ccccc2-c2ccccc21)N1CCOCC1,inactive: 2.91%
7,CC(C)Cc1nc2oc3c(Cl)ncnc3c2c2c1CCC2,inactive: -4.6%
8,Cc1nc(SCC(=O)N2CCN(c3ccccc3)CC2)n[nH]1,inactive: -1.71%
9,Cc1ccc(S(=O)(=O)N2[C@@H](c3ccccc3F)C(C(=O)O)=CC[C@H]2c2ccc(Cl)c(Cl)c2)cc1,inactive: 1.86%
10,CCOC(=O)CCCCCC(=O)Nc1ccc2c(c1)CC(=O)N([C@H](C)CO)C[C@@H](C)[C@H](CN(C)Cc1ccc3c(c1)OCO3)O2,inactive: 1.07%
11,COC(=O)Cc1c(C)[nH]n(-c2cc(Cl)cc(Cl)c2)c1=O,inactive: -0.389%
12,COc1ccc(C(=O)Nc2cccc(NC(=O)c3cccs3)c2)cc1OC,inactive: -0.592%
13,CC(=O)N/N=C\c1ccccc1OC/C=C/c1ccccc1,inactive: 2.74%
14,CC(C)Cc1ccc(C(C)C(=O)Nc2nccs2)cc1 (stereo unspecified),inactive: -2.8%
15,O=C(Nc1ccc(SC(F)F)cc1)c1ccc2c(=O)n3c(nc2c1)CCC3,inactive: -2.9%
16,CCOC(=O)C1(CCOc2ccccc2)CCN(Cc2cccc(OC)c2O)CC1,inactive: 2.43%
17,O=C(Nc1cc(S(=O)(=O)N2CCCCC2)ccc1Cl)c1ccccc1NS(=O)(=O)c1ccc(F)cc1,inactive: -2.9%
18,COc1ccccc1-n1cnc2cc(NS(=O)(=O)c3ccc(Br)cc3)ccc21,inactive: 0.0454%
19,O=C(CC1S/C(=N/N=C2CCCCCC2)NC1=O)Nc1ccc(Br)cc1F (stereo unspecified),inactive: 2.65%
20,Cc1cc(C(=O)CSc2nc3ccccc3[nH]2)c(C)n1CC1CCCO1 (stereo unspecified),inactive: -6.32%
21,CCCC(=O)Nc1cccn(Cc2ccccc2Br)c1=O,inactive: 0.707%
22,CC(C)(C)c1ccc(C(=O)CC(Sc2ccc(Cl)cc2)C(=O)O)cc1 (stereo unspecified),inactive: -2.49%
23,COc1ccc(-n2nc(C(=O)NCC(=O)Nc3cc(OC)c(OC)c(OC)c3)c3ccccc3c2=O)cc1OC,inactive: -0.232%
24,Cc1ncsc1CCOC(=O)C1C2CC3CC(C2)CC1C3 (stereo unspecified),inactive: -1.68%
25,CCc1ccc(-c2nnn(CCC(=O)OC)n2)cc1,inactive: 2.98%
26,Brc1cc2c(cc1/C=N/Nc1nc(N3CCOCC3)nc(N3CCOCC3)n1)OCO2,inactive: 1.14%

row,Structure (SMILES),"activity change, negative = inhibition"
1,COc1ccc(-c2cc(-c3ccccc3)c(C#N)c(S(C)=O)n2)cc1 (stereo unspecified),inactive: -1.58%
2,CC(=O)Oc1c(C)cc(Cl)cc1C(=O)Nc1ccc([N+](=O)[O-])cc1Cl,inactive: -5.01%
3,CCc1ccc(N/C(SCc2cccc(F)c2)=C(/C#N)C(=O)NCc2ccco2)cc1,inactive: 0.052%
4,O=C(OCn1ncc(Cl)c(Cl)c1=O)c1cccc(C(F)(F)F)c1,inactive: -0.844%
5,O=C(COc1ccc(Cl)cc1Cl)Nc1ccc(C(=O)Nc2ccccc2C(=O)O)cc1,inactive: -0.211%
6,CCc1cc(CNC(=O)CC2C(=O)NCCN2Cc2ccc(-c3ccccc3)cc2)on1 (stereo unspecified),inactive: -0.039%
7,Cc1n[nH]c(C)c1S(=O)(=O)N1CCCC(C(=O)N2CCN(c3ccc(Cl)cc3)CC2)C1 (stereo unspecified),inactive: -2.41%
8,Cc1ccc(CN2C(=O)c3ccccc3Sc3ccc(C(=O)NCCN4CCOCC4)cc32)cc1,inactive: -0.653%
9,COc1ccc(-c2csc(/C(C#N)=C\c3ccc(O)c([N+](=O)[O-])c3)n2)cc1OC,inactive: -2.64%
10,Cc1cc(OCC(=O)Nc2cccc(S(=O)(=O)N3CCCC3)c2)ccc1Cl,inactive: -2.78%
11,Cc1cc2c(NCCc3ccccc3)ncnc2s1,inactive: 0.102%
12,CSc1cccc(NC(=O)CN2C(=O)COc3ccc(S(=O)(=O)N4CCOCC4)cc32)c1,inactive: 1.29%
13,O=C1NC(=O)/C(=C/c2ccccc2Oc2ccc(Cl)cc2)S1,inactive: 2.88%
14,Cc1csc2ncnc(N3CCN(S(=O)(=O)c4cccc(C(F)(F)F)c4)CC3)c12,inactive: -2.99%
15,Cc1ccc(O)c(N=Cc2cc(Cc3ccccc3)cc([N+](=O)[O-])c2O)c1,inactive: 0.607%
16,CCN(CC)S(=O)(=O)c1cccc(NC(=O)CNc2cccc(S(=O)(=O)N3CCOCC3)c2)c1,inactive: -1.44%
17,O=C(COc1cccc2ccccc12)Nc1ccc(Cl)cc1C(=O)O,inactive: 2.46%
18,C[C@@H](NC(=O)[C@@H]1Cc2ccccc2CN1)C(=O)NC1CCCCC1,inactive: 3.6%
19,CSc1cccc(NC(=O)C2CCCN(S(=O)(=O)c3ccc(F)cc3)C2)c1 (stereo unspecified),inactive: -7.29%
20,Cc1nc2ccccc2n1CCOc1ccccc1,inactive: 2.28%
21,Cc1ccc(CNC(=O)CCNC(=O)N2CCn3c2nc2ccccc23)cc1,inactive: 0.978%
22,O=C1c2cccnc2C(=O)N1Cc1ccc(S(=O)(=O)N2CCN(c3ccc(Cl)cc3)CC2)cc1,inactive: -0.125%
23,CC(=O)N1c2ccc(S(=O)(=O)NCCC(=O)Nc3cccc(Cl)c3)cc2CC1C (stereo unspecified),inactive: 3.16%
24,CC1CCN(c2ccccc2NC(=O)c2cc([N+](=O)[O-])ccc2N2CCOCC2)CC1,inactive: -3.69%
25,N#Cc1c(SCc2c(Cl)cccc2Cl)nc(N)[nH]c1=S,inactive: 0.676%
